# This is one part of the list. The full chains were built here from the parent and the listed change. Values near 0.05 are background.
# B1: TEV protease; numbered along this chain (parent)
# chain: MGESLFKGPRDYNPISSSICHLTNESDGHTTSLYGIGFGPFIITNKHLFRRNNGTLVVQSLHGVFKVKDTTTLQQHLVDGRDMIIIRMPKDFPPFPQKLKFREPQREERICLVTTNFQTKSMSSMVSDTSCTFPSGDGIFWKHWIQTKDGQCGSPLVSTRDGFIVGIHSASNFTNTNNYFTSVPKNFMELLTNQEAQQWVSGWRLNADSVLWGGHKVFMVKPEEPFQPVKEATQL
# Variants of: B1
# Assay: raw area under fraction-flipped curve 0-4 h after induction (AUC4h, not background-subtracted), DNA-recorder readout of cleavage of the substrate (dimensionless); higher = more cleavage of the substrate by the protease variant
# Conditions: temperature: 34 °C; time window: 0-4 h after rhamnose induction
# Description: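 In vivo DNA recorder in E. coli TOP10(DE3) ΔrhaA at 34 °C. Each TEVp single-site mutant (parent TEVp 0) is paired with a single-site variant of the 7-mer TEVs (canonical ENLYFQ|S). The substrate sits between flexible linkers in a Bxb1-sfGFP-TEVs-SsrA fusion, so cleavage stabilises Bxb1 and speeds flipping of a recombination array, read by NGS. The value is the raw area under the fraction-flipped curve over 0-4 h after rhamnose induction (AUC4h), with ≥20 reads per time point. It is not background-subtracted; inactive controls average about 0.047.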
# 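Note: Bxb1 expression induced with 0.2% (w/v) L-rhamnose at OD600 near 0.5, cultures sampled hourly, flipped fraction per protease–substrate barcode pair counted by paired-end Illumina sequencing.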
Variant,area with substrate ENLYFAS,area with substrate ENLYFCS,area with substrate ENLYFES,area with substrate ENLYFFS,area with substrate ENLYFIS,area with substrate ENLYFMS,area with substrate ENLYFNS,area with substrate ENLYFPS,area with substrate ENLYFTS,area with substrate ENLYFVS,area with substrate ENLYFYS,area with substrate ENLYFKS,area with substrate ENLYFRS,area with substrate ENLYFSS,area with substrate ENLYFWS,area with substrate ENLYFDS,area with substrate ENLYFHS,area with substrate ENLYFGS,area with substrate ENLYFLS
V58N,0.0482,0.0488,0.039,0.0559,0.037,0.0618,0.0666,0.0454,0.0625,0.0616,0.0467,–,–,–,–,–,–,–,–
H47Q,0.0715,0.0547,0.0638,0.0684,0.0587,0.064,–,0.064,0.062,0.0585,0.0674,0.0693,0.0666,0.0554,0.0615,–,–,–,–
Q59D,0.0687,–,–,0.0764,–,0.075,–,–,0.0646,0.0686,–,–,–,–,–,0.0593,–,–,–
T30I,0.069,0.0554,0.0715,–,0.0479,0.0616,0.0633,0.0615,0.0433,–,0.062,0.0618,–,0.0658,0.0449,0.064,0.0631,–,–
T30E,0.0544,0.0506,0.0738,0.0589,0.0535,0.0739,0.0569,0.057,0.0656,0.0612,0.0496,0.0556,–,–,0.0653,0.0582,0.0554,0.0571,–
T30P,0.0555,0.0707,–,0.0641,–,0.0625,–,0.0499,–,–,–,0.0665,0.0561,0.0409,–,0.0524,0.0561,0.0502,–
K68D,0.0648,0.0588,–,0.0682,0.0695,0.0641,0.0604,0.0813,0.0516,–,0.0831,–,–,0.0692,0.0402,0.0696,–,–,–
E3L,0.0666,–,0.0596,0.0776,0.059,0.0647,–,0.0442,0.0657,–,0.0489,–,–,0.0518,–,–,0.051,0.0828,0.0584
S26Y,0.0655,0.0621,0.0604,0.0675,0.0629,0.0618,0.0565,0.0679,0.0566,0.131,–,0.0685,0.0608,–,0.0558,0.0735,–,0.0663,–
N52E,0.0658,0.0726,0.0609,0.0758,0.06,0.0551,–,–,–,–,0.0635,0.0802,0.053,0.0336,0.0578,–,–,–,–
N52L,0.0502,0.0587,0.0646,0.0753,0.0585,0.0589,0.0665,0.0618,–,0.0641,0.0593,0.0665,0.0764,0.0641,–,–,0.0643,–,0.105
N52A,0.063,–,0.0644,0.0472,0.0556,0.053,0.0594,0.0596,0.0558,–,0.0601,0.0701,0.0544,0.0641,–,0.0766,–,–,0.0503
G63S,0.0567,–,0.062,–,0.056,0.0725,0.0403,0.0611,0.0692,0.0543,–,0.055,–,0.047,0.0446,–,0.0611,0.055,–
R51Y,0.0423,–,0.0616,0.0714,0.0368,–,0.0739,0.0538,0.055,–,0.072,0.0645,–,–,–,0.0824,–,0.0587,–

# From the supplement of paper PMC12217912
